SMILES strings stand for the structures. About 14,000 (4.5%) of roughly 310,000 compounds showed an effect of 50% or more. Effects have a minus sign here. The list shows a part of the results.
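Further: peak tail current of the secondary pulse compared with the same well before compound.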

The target in the assay is human ether-à-go-go-related gene (hERG) potassium channel (human, UniProt Q12809). The assay can be described thus: primary screen, population patch clamp on CHO cells stably expressing hERG.
Chain of human ether-à-go-go-related gene (hERG) potassium channel (Q12809 whole entry, looked up): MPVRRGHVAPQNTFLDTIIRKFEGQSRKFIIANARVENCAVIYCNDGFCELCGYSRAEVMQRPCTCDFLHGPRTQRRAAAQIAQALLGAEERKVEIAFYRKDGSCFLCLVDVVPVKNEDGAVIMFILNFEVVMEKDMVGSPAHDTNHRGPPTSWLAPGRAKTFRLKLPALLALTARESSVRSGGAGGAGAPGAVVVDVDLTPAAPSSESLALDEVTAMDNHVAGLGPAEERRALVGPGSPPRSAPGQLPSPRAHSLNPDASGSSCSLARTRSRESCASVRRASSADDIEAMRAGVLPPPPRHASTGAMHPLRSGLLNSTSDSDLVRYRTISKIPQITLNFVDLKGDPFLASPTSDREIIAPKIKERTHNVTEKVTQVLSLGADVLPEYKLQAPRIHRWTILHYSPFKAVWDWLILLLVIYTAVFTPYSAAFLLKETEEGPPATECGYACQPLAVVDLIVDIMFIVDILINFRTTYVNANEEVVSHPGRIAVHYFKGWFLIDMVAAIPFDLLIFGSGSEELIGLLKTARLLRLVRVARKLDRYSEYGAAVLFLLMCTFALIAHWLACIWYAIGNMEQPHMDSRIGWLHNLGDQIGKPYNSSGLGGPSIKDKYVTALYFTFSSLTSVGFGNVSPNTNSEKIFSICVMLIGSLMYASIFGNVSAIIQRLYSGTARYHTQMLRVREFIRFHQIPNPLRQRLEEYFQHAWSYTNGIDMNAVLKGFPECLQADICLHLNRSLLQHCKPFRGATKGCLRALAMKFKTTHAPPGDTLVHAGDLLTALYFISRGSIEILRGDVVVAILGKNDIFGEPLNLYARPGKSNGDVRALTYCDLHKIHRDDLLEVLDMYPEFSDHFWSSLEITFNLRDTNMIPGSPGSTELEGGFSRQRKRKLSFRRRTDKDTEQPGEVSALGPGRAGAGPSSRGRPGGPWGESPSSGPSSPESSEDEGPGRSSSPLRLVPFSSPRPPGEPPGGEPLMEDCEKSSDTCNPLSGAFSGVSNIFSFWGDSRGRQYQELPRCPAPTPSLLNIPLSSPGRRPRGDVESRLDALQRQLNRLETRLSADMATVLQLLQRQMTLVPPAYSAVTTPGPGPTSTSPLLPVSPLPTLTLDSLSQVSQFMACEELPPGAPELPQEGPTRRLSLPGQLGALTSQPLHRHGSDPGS
Take `COc1cc(-c2nc(-c3ccccc3)c(-c3cccs3)[nH]2)cc(OC)c1OC`: the “hERG current change (%, negative = inhibition) at 10uM” value is -2.33%. The result for `c1cncc(Nc2c3ccccc3nc3ccccc23)c1` reads -30%; that for `CN(CCc1cnn(C)c1)Cc1nc(CC2CC2)no1`, -31.3%; that for `O=C(/C=C/c1cccc([N+](=O)[O-])c1)N1CCN(c2ccccc2F)CC1`, -38.9%. Consider `COc1cccc(CC2(CO)CCCN(Cc3cc4ccccc4[nH]3)C2)c1` (stereo not drawn), for which the “hERG current change (%, negative = inhibition) at 10uM” value is -37.5%. The result for `CN(C)C1=NC(=O)/C(=C/c2ccc(-c3ccc(S(N)(=O)=O)cc3)o2)S1` reads 10.8%. For `CC(=O)N1CCC2(CC1)CC(=O)c1cc(OCC(=O)N3CCN(C)CC3)ccc1O2`, the “hERG current change (%, negative = inhibition) at 10uM” value was found to be 1.86%. To `Cc1ccc(CSc2nnc(-c3ccncc3)n2N)cc1` belongs 0.315%; to `COc1ccc(C(=O)Nc2ccnn2C2CCN(Cc3ccccn3)CC2)cc1`, 5.54%; to `CCn1ccnc1CN(C)C(=O)c1ccc(OC2CCN(CCc3ccccc3)CC2)cc1`, -24.8%. The result for `O=C(/C=C/c1ccc(F)cc1)c1ccc(N2CCOCC2)cc1` reads 6.58%. As to `Cn1cnnc1SCC(=O)Nc1ccc(Br)cc1F`, the “hERG current change (%, negative = inhibition) at 10uM” value is listed as -7.75%. With `O=C1/C(=C/c2ccccc2)N=C(N2CCOCC2)N1c1cccc(Cl)c1`, the “hERG current change (%, negative = inhibition) at 10uM” value is on record as -20.2%. Regarding `COc1cccc(CN2CCN(C(=O)c3ccco3)CC2)c1.O=C(O)C(=O)O`, the “hERG current change (%, negative = inhibition) at 10uM” value is -0.599%.

With `CN(C[C@H](Cc1ccccc1)N(C[C@H](Cc1ccccc1)N(CCc1cc(C(F)(F)F)cc(C(F)(F)F)c1)N=O)N=O)N=O.[Na+]`, the “hERG current change (%, negative = inhibition) at 10uM” value amounted to 7.96%. For `COc1cccc(C(=O)N2CCN(Cc3ccccn3)CC2)c1OC.O=C(O)C(=O)O`, the “hERG current change (%, negative = inhibition) at 10uM” value is given as -8.88%. For the molecule `O=C(c1cccs1)N(Cc1cc2ccccc2[nH]c1=O)c1ccccc1`, the “hERG current change (%, negative = inhibition) at 10uM” value is listed as -11.8%. On to `CC1CN(S(=O)(=O)c2cccc(C(=O)NCCC3=CCCCC3)c2)CC(C)O1` (stereo not drawn), for which the “hERG current change (%, negative = inhibition) at 10uM” value was -36.5%.

Consider `CCN(Cc1ccccc1)S(=O)(=O)c1ccc(F)cc1`, for which the “hERG current change (%, negative = inhibition) at 10uM” value was -1.52%. On to `COc1ccc2c(CC(=O)OCC(=O)NC(=O)c3cccn3C)coc2c1`, for which the “hERG current change (%, negative = inhibition) at 10uM” value turned out to be 2.74%. As to `O=C(CCc1ccccc1)NCC1OCCc2ccccc21` (stereo not drawn), the “hERG current change (%, negative = inhibition) at 10uM” value is reported as -8.64%. To `CCOc1ccc(CN2CCN(C(=O)c3ccccc3)CC2)cc1` belongs -39.5%. In the case of `C=C(C)Cn1c(-c2cccs2)n[nH]c1=S`, the “hERG current change (%, negative = inhibition) at 10uM” value came out at 15.3%.

Turning to `Cc1nn(-c2ccccc2)c2nc(C(F)(F)F)[nH]c(=O)c12`, the “hERG current change (%, negative = inhibition) at 10uM” value is 30.1%. As to `Cl.O=C(NCCN1CCOCC1)c1cc(S(=O)(=O)Nc2ccccc2F)c(Cl)cc1Cl`, the “hERG current change (%, negative = inhibition) at 10uM” value was 5.95%.

As to `COc1ccccc1CC(=O)NNC(=O)c1ccc(C(C)(C)C)cc1`, the “hERG current change (%, negative = inhibition) at 10uM” value is recorded as 15.2%. For the molecule `CCO[C@H]1OC(C(=O)NC2CC2)=C[C@@H](c2ccccc2)[C@@H]1CCCO`, the “hERG current change (%, negative = inhibition) at 10uM” value is 3.01%. Regarding `COc1ccc(N(CC(=O)Nc2ccc(S(=O)(=O)N3CCOCC3)cc2)S(=O)(=O)c2ccccc2)cc1`, the “hERG current change (%, negative = inhibition) at 10uM” value is 11.3%. With `COc1ccc(N2CCN(C(=O)c3cc(-c4cc(OC)ccc4OC)nc4ccccc34)CC2)cc1`, the “hERG current change (%, negative = inhibition) at 10uM” value is recorded as -1.23%. Regarding `COc1ccccc1C(CNC(=O)C1CC(=O)N(Cc2ccc(C)cc2)C1)N1CCCC1` (stereo not drawn), the “hERG current change (%, negative = inhibition) at 10uM” value was 2.47%.

Turning to `O=C(NC(=O)c1ccc(Cl)cc1)Nc1cc(N2CCCCC2)ncn1`, the “hERG current change (%, negative = inhibition) at 10uM” value turned out to be 8.37%.

As to `CCN(c1ccc(NC(=O)CSCc2c(C)noc2C)cc1)C(C)C`, the “hERG current change (%, negative = inhibition) at 10uM” value is -7.72%. To `NC(=O)c1nsc(C(=O)N(CC(=O)NCc2ccc(F)cc2)Cc2ccco2)c1N` belongs -10.8%.

As for `COC(=O)c1ccc(/C=N\n2c(C)nnc2C)cc1`, the “hERG current change (%, negative = inhibition) at 10uM” value is 18.9%.

As for `Cc1occc1C(=O)N/N=C/c1ccccn1`, the “hERG current change (%, negative = inhibition) at 10uM” value was determined as 9.8%. The result for `CC(C)CCNC(=O)NC(=O)COC(=O)/C=C/c1cc(Br)ccc1F` reads 19.4%; that for `CCn1c(CN2CCOCC2)nnc1SCC(=O)Nc1cccc(C)c1`, -4.87%. To `CC(C)C[C@@]12C(=O)N(c3cccc(Br)c3)C(=O)N1[C@H](c1ccc(F)cc1)[C@@H]1C(=O)N(C3CCCCC3)C(=O)[C@@H]12` belongs 31.9%; to `O=C(N/N=C(/c1ccccc1)c1ccncc1)c1ccc2c(c1)OCO2`, -14.6%. To `O=S(=O)(Nc1nccs1)c1ccc(F)cc1` belongs 34.8%; to `CCc1cc(C(=O)N2CCCC(C(=O)c3ccc(Cl)cc3)C2)no1` (stereo not drawn), -8.19%.

Consider `COc1ccc(S(=O)(=O)N(CC(=O)NCCC(C)C)c2ccccc2)cc1OC`, for which the “hERG current change (%, negative = inhibition) at 10uM” value came out at 8.08%.

In the case of `COc1ccc(NC(=O)C2CCCCN2N)cc1OCC(C)C.O=C(O)C(=O)O` (stereo not drawn), the “hERG current change (%, negative = inhibition) at 10uM” value is given as -5.25%. The result for `Cc1nnc(SCc2nc3sc(C(=O)O)c(C)c3c(=O)[nH]2)s1` reads 27.3%; that for `CC(C(=O)Nc1ccccc1)C(=O)Nc1ccccc1`, 15.2%; that for `CCOc1ccc(/C=C2\NC(=S)NC2=O)cc1`, 12.8%. To `COc1nsnc1NS(=O)(=O)c1ccc(NC(=S)NC(=O)c2cccnc2)cc1` belongs 25.5%; to `O=S(=O)(c1cccs1)N1CN(CC2CCCO2)c2nc3ccccc3nc21` (stereo not drawn), -16.1%; to `O=c1c(O)c(-c2cccs2)oc2ccc(Cl)cc12`, 4.99%. To `COc1ccc(-c2c(-c3cc(OC)cc(OC)c3)n(C)c3ccc(Br)cc23)cc1` belongs 18.6%; to `CCOP(=O)(Cc1cc(C(=O)CC)c(C)o1)OCC`, 12.8%.

Consider `CCn1c(CNC(=O)c2ccccc2OC)nnc1SCC(=O)c1ccc(F)cc1`, for which the “hERG current change (%, negative = inhibition) at 10uM” value is on record as -9.15%.

With `CCCOc1ccc(N2C(=O)CC(NNC(=O)c3ccc(COc4ccccc4)o3)C2=O)cc1` (stereo not drawn), the “hERG current change (%, negative = inhibition) at 10uM” value was determined as 7.79%. The result for `O=C(Nc1ccc(Br)cc1)c1cc(-c2ccc3c(c2)OCO3)on1` reads -5.31%; that for `O=S(=O)(NC1=NCCC1)c1cccc(NC(=S)NCCc2ccccc2)c1`, 5.47%; that for `COc1ccc(-c2cc(C3CCN(c4ncccc4[N+](=O)[O-])CC3)[nH]n2)cc1`, -5.85%. The result for `COc1ccc(-c2nc(-c3cccc(C)c3)nc(N3CCN(C)CC3)c2C#N)cc1` reads -8.67%; that for `COc1ccc(N(CC(=O)N/N=C/c2ccc3c(c2)OCO3)S(=O)(=O)c2ccc(NC(C)=O)cc2)cc1`, 14.7%. To `COc1cc(C(=O)NC(=S)NNC(=O)c2cnccn2)cc(OC)c1OC` belongs 9.65%; to `O=C(/C=C/c1ccc(Br)cc1)NC1CCCCCC1`, -4.17%; to `COc1ccc(CC(=O)NC(C)c2ccc3ccccc3c2)cc1` (stereo not drawn), 14.6%. With `CCn1c(=O)cc(SCC(=O)N2CCOCC2)c2ccccc21`, the “hERG current change (%, negative = inhibition) at 10uM” value is recorded as -11.9%. Turning to `CSc1ccccc1NC(=O)Nc1cccc(Cl)c1Cl`, the “hERG current change (%, negative = inhibition) at 10uM” value turned out to be 11.3%. Turning to `Cc1cc(C)nc(SC2CCOC2=O)n1` (stereo not drawn), the “hERG current change (%, negative = inhibition) at 10uM” value was 0.669%. To `COc1ccc(NC(=O)N2CCCc3ccccc32)cc1` belongs -9.42%.

Take `CCCCC(=O)NNC(=O)c1c(O)c2ccccc2[nH]c1=O`: the “hERG current change (%, negative = inhibition) at 10uM” value is recorded as -6.65%. The result for `CC(C)[C@H](NC(=O)c1ccccc1F)C(=O)NCc1ccc(S(N)(=O)=O)cc1` reads 10.3%. To `O=C(CC1SC(=Nc2ccccc2)N(CCO)C1=O)Nc1ccccc1` (stereo not drawn) belongs 21%; to `O=c1c2cc(Br)ccc2nc(-c2ccc(Cl)cc2)n1O`, 27.8%. As to `COc1cc(NC(=O)N2c3ccccc3Sc3ccccc32)c(C(=O)O)cc1OC`, the “hERG current change (%, negative = inhibition) at 10uM” value worked out at 13.8%. Consider `CCOC(=O)C(=O)NCC(c1cccs1)S(=O)(=O)c1ccc(Cl)cc1` (stereo not drawn), for which the “hERG current change (%, negative = inhibition) at 10uM” value is -18.2%. Regarding `Oc1[nH]c2ccccc2c1N=Nc1ccccc1`, the “hERG current change (%, negative = inhibition) at 10uM” value was 18.5%. For `COCCn1c(SCc2csc(-c3ccccc3)n2)nc2ccccc21`, the “hERG current change (%, negative = inhibition) at 10uM” value is -9.09%. To `C=CCN1C(=O)c2ccccc2C1(O)Cc1ccccc1` (stereo not drawn) belongs 16.5%.

In the case of `COc1cc(/C=C/C(=O)Nc2nc3ccc(S(=O)(=O)NC(C)C)cc3s2)cc(OC)c1OC`, the “hERG current change (%, negative = inhibition) at 10uM” value is recorded as -6.51%. The result for `O=C(CC(SCCO)c1ccc2c(c1)OCO2)c1cccs1` (stereo not drawn) reads -16.7%; that for `O=C(C[n+]1cc(Br)cc(Br)c1)c1ccccc1.[Br-]`, 8.53%. `COc1ccc(O)c(-c2cc(C(F)(F)C(F)F)nc(-c3ccccc3)n2)c1`: the “hERG current change (%, negative = inhibition) at 10uM” value was 0.873%. As for `Cc1ccccc1N/N=C/c1sc(=O)n(Cc2cccc(C(=O)O)c2)c1Cl`, the “hERG current change (%, negative = inhibition) at 10uM” value was found to be 38.9%. As for `CC(c1ccccc1)N1CCN(C(=O)CCl)CC1.Cl` (stereo not drawn), the “hERG current change (%, negative = inhibition) at 10uM” value was 9.63%.

With `CCN(CC)CC#CCC(O)(c1ccccc1)C1CCCC1.Cl` (stereo not drawn), the “hERG current change (%, negative = inhibition) at 10uM” value is recorded as -11.7%.

Regarding `O=C(O)c1cccc(N2C(=O)c3ccc(Oc4ccc(Cl)cc4)cc3C2=O)c1`, the “hERG current change (%, negative = inhibition) at 10uM” value was determined as 12.8%. The result for `CSc1nc(-c2ccccc2)nn1C(=O)c1ccco1` reads -0.58%; that for `COc1ccc(-c2nc(SC(CC(=O)NCCO)c3cccs3)n[nH]2)cc1` (stereo not drawn), -1.24%; that for `Cc1ccc(COc2ccccc2-c2cc(C(=O)N/N=C/c3cccnc3)[nH]n2)cc1`, 0.426%.

`Cn1c(=O)c2c(ncn2CC(=O)OCC(=O)Nc2ccc(Cl)cc2Cl)n(C)c1=O`: the “hERG current change (%, negative = inhibition) at 10uM” value is recorded as -21.1%. On to `Cc1c(C(=O)OCC(=O)N2CCCC2)cccc1[N+](=O)[O-]`, for which the “hERG current change (%, negative = inhibition) at 10uM” value amounted to 10.3%.

Source of the values: publication PMC4336329 (PLoS ONE, 2015).
